From the supplement of paper PMC3334620
Whole data set: some 33,000 sequences, median “E-score (-0.5 to 0.5)” near -0.032, cut for the highest 2% near 0.36. Some of the results follow.

These sequences were tested against T1, Sko1 (UniProt Q02100) (assay: PBM E-score (8-mer binding enrichment) (E-score (-0.5 to 0.5)); higher = stronger / more preferred TF binding; most listed sequences are background and not binding sites). Settings: protein concentration: 200 nM; construct: GST-full length.
T1 sequence: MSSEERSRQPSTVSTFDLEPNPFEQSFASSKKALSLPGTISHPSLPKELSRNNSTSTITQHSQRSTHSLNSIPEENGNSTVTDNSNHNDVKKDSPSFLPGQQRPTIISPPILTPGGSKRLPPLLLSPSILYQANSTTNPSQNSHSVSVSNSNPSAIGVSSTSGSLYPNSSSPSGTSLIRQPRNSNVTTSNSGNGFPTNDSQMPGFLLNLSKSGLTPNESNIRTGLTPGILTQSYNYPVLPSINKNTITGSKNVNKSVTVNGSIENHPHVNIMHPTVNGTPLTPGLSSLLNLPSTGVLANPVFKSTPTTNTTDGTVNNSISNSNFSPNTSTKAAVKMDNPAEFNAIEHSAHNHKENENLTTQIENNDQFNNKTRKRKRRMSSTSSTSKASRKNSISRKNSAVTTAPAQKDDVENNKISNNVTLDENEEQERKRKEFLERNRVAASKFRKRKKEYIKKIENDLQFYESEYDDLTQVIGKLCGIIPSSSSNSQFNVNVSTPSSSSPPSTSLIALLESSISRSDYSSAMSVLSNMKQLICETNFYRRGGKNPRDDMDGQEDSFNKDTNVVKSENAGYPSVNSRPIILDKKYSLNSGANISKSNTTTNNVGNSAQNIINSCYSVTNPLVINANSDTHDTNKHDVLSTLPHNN
Method in brief: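 Using PURExpress in vitro transcription/translation, GST-tagged yeast transcription factors were made in full-length or DNA-binding-domain form. These were applied at about 100-200 nM to double-stranded universal all-10-mer Agilent arrays, and bound protein was detected with fluorescent anti-GST. Scans were normalised with masliner before the Universal PBM Analysis Suite assigned E-scores to ungapped eight-base words pooled with their reverse complements.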

| Sequence | PBM E-score |
| --- | --- |
| CACACAGC | 0.0469 |
| CCTGAATA | 0.0721 |
| AAATGTGA | 0.129 |
| CCTTGTCA | -0.0549 |
| AGCGCTCA | -0.201 |
| AATGACGA | 0.476 |
| AGAGTCCG | -0.222 |
| AGAGTTCC | -0.269 |
| ACCTTGTC | -0.177 |
| ACTCCGTG | -0.0155 |
| GATATACA | 0.0791 |
| CTATGCCC | -0.109 |
| ATTACGCA | 0.47 |
| AAACTGGG | -0.262 |
| GACCATCC | -0.0785 |
| CGAGGTCC | -0.434 |
| AAACCTCT | -0.0982 |
| ATTCCATG | -0.0675 |
| CTCCTAAG | -0.0682 |
| GGGTGATA | -0.168 |
| CCGATAAA | -0.0878 |
| CACAGACA | 0.0497 |
| ATGCATTG | 0.0538 |
| AGGGGCCG | -0.177 |
| CAGATGGA | -0.0703 |

| Sequence | PBM E-score |
| --- | --- |
| CGCGATAA | 0.172 |
| AACAGGTC | -0.144 |
| ATGAAAAC | 0.22 |
| TGACAGAA | 0.141 |
| ACTACACA | 0.189 |
| ATGTCTGC | -0.159 |
| GCACTATA | -0.016 |
| AACGACCC | -0.24 |
| TCGCGTCA | 0.408 |
| GTCCATTA | 0.201 |
| CCCGGAGC | -0.259 |
| CCCACTCC | -0.282 |
| AAGCCACA | 0.0819 |
| CATCTCCG | 0.0127 |
| GCACACCA | 0.0562 |
| ATTCTTCC | -0.0522 |
| CCGCCATA | -0.182 |
| ACAAGTAC | 0.154 |
| CACAGCAC | -0.0923 |
| AATTTTCG | 0.0901 |
| AGGACAAG | -0.266 |
| GGCTACAC | -0.153 |
| GGATCAAA | -0.0377 |
| GACAGGTA | -0.0841 |
| AGGGAGAG | -0.334 |

| Sequence | PBM E-score |
| --- | --- |
| AAAGACGA | 0.172 |
| GGATCGCC | -0.0722 |
| GAAGGGAC | -0.172 |
| ATGTTTCA | 0.0236 |
| CCGGGACC | -0.273 |
| AAGACCAT | -0.149 |
| GAGATCAA | -0.00777 |
| CGTATATA | 0.418 |
| CTCACAAG | 0.042 |
| CCTATAGA | -0.0723 |
| CCCCGAAG | -0.228 |
| AAGCTGAT | 0.0838 |
| AGTTCTCC | -0.178 |
| ATCCATGG | -0.237 |
| CTAAATCC | -0.198 |
| GCTTGTAA | 0.0121 |
| CGGGATTC | 0.0141 |
| AACGCTAA | -0.0246 |
| CTTTGGTC | 0.0509 |
| AGGTAGGC | -0.0922 |
| AGCACTAA | -0.192 |
| CACGTCGA | 0.278 |
| CATTGAGG | -0.021 |
| CCTTGGTA | 0.0289 |
| ATGAAATC | 0.172 |

| Sequence | PBM E-score |
| --- | --- |
| GGAGTACC | -0.247 |
| ACACCCGA | -0.187 |
| GCTGAACC | -0.238 |
| AAGATTCC | 0.0686 |
| CGTGTATC | 0.116 |
| CCCCCTAC | -0.267 |
| CCAATGAA | -0.215 |
| ATATAGTC | 0.194 |
| ACCACTGA | -0.00793 |
| GGAACCGA | -0.182 |
| AGTATATG | 0.0683 |
| CATTGACA | -0.0852 |
| CGCCCGGC | -0.212 |
| AGGGCGTG | -0.103 |
| CCCTCGTA | -0.00424 |
| AACGCCAT | 0.195 |
| CCAACGCG | 0.0116 |
| ATGACCAT | 0.151 |
| CTGCATGA | -0.101 |
| AACGACGT | 0.411 |
| CACGAAGG | -0.0146 |
| CCCCTAAC | -0.194 |
| CCCGGCGA | -0.223 |
| CATCACAG | 0.17 |
| CTATCTTC | 0.129 |

| Sequence | PBM E-score |
| --- | --- |
| GCAAACGA | 0.136 |
| ACGCGAGA | 0.131 |
| GAAGCGGA | -0.235 |
| AGGACTAT | -0.222 |
| GAGCAAAC | -0.0519 |
| GTTCGAAA | 0.114 |
| AAGTTTTA | 0.142 |
| ATAGGTTC | -0.0831 |
| AACCCCCT | -0.333 |
| CTTATGAA | -0.0245 |
| TACAGTAA | 0.201 |
| CGTTATCA | 0.26 |
| ATTACATG | 0.324 |
| ATGACGGG | 0.338 |
| CATGGAAG | 0.148 |
| AAAGTAGC | -0.0666 |
| AAGCAATC | 0.00763 |
| ACTCTGTA | 0.082 |
| GTGGGGTA | -0.0573 |
| GAGGTTGC | -0.116 |
| AGAACTCC | -0.207 |
| TGTTCGAA | -0.0402 |
| AACATGAA | 0.0776 |
| ACTCGTTG | 0.0164 |
| GAAATCGA | -0.131 |

| Sequence | PBM E-score |
| --- | --- |
| CCCTTCGA | -0.331 |
| AGCTTCAA | -0.06 |
| AGAATCCT | -0.296 |
| TAGTGTCA | 0.147 |
| AAGACAGC | -0.16 |
| ATTTTAAC | -0.0019 |
| ATTCACCC | -0.196 |
| TCCCGGAA | -0.263 |
| GGAATTAC | 0.212 |
| CTCGTTTC | 0.0206 |
| CCGTAATA | 0.288 |
| CGAGGCAC | -0.224 |
| CGAGAGAA | -0.105 |
| TACGTTGA | 0.38 |
| CGCTCTCA | -0.0854 |
| AATAGGAT | 0.111 |
| TCAATCGA | 0.167 |
| ATCCCAAA | -0.136 |
| AGAAACAG | -0.138 |
| CAGAGTGG | -0.0194 |
| AGACGCCT | -0.0417 |
| CATTAGGG | -0.146 |
| AAAGTAGT | 0.113 |
| GATTACCA | -0.00744 |
| ACGTAGTG | 0.452 |

| Sequence | PBM E-score |
| --- | --- |
| ACATCACA | 0.313 |
| AACTACTA | 0.124 |
| GCGTCAGA | 0.364 |
| GCCGATTA | 0.00424 |
| CCAGGCCC | -0.257 |
| ATTGCCCC | -0.164 |
| CCTACTAC | -0.0403 |
| TAACTGGA | -0.102 |
| GCCGTGCA | -0.22 |
| GGCCTACC | -0.208 |
| ATGAGTAC | 0.0497 |
| CCTAGGTC | -0.153 |
| AACTTTTA | 0.254 |
| CCTCGTAC | 0.0527 |
| CTGTCAAG | -0.125 |
| GCTTTACC | 0.137 |
| CCTCAAAA | -0.0851 |
| CTGACAAG | -0.11 |
| GGAACCCC | -0.386 |
| CTAATATA | 0.302 |
| AAGACGCC | -0.165 |
| AGGCCAGG | -0.292 |
| ATCAAAAG | 0.0595 |
| CACCTGCA | -0.167 |
| GTAGCCGA | -0.0119 |

| Sequence | PBM E-score |
| --- | --- |
| ACCCTTTC | -0.0379 |
| ACAGACGC | -0.0185 |
| GCCTCGTA | 0.124 |
| GAACGTGA | 0.175 |
| CATGCTAA | 0.0633 |
| GACGCTCC | -0.174 |
| GGGCGCCC | -0.19 |
| CGTCGGAG | 0.0505 |
| CTAATGCA | 0.166 |
| CACGTCTC | 0.134 |
| ATAAACCG | -0.0645 |
| GCCTGAAA | 0.00192 |
| GCGCACCC | -0.124 |
| ACACACGG | -0.0648 |
| AACCGACC | -0.143 |
| GAATAACC | -0.126 |
| ATGCTGAG | -0.255 |
| CAACGCAG | -0.0699 |
| ACTGGTCT | -0.0908 |
| CGCAGTTA | 0.141 |
| AATAAGCC | -0.0119 |
| CCGCCTGA | -0.201 |
| ATGAGCAT | 0.121 |
| CAGGTTTA | -0.124 |
| AGCGATGA | 0.0693 |

| Sequence | PBM E-score |
| --- | --- |
| ATGAGAAA | 0.0845 |
| TAAGACGA | 0.0713 |
| CAGATATC | -0.0291 |
| ACAAAGTC | -0.174 |
| ACGGTGCC | -0.0731 |
| ACTAGACT | -0.176 |
| AGTGTCAA | 0.00645 |
| ACCTAGGT | -0.136 |
| CCCGCACG | -0.0484 |
| CCGCTGAC | -0.0713 |
| AGTGAAAA | -0.0882 |
| GAATCACC | -0.00243 |
| GTATCGCA | -0.113 |
| CGGGACCG | -0.299 |
| ATATGTAA | 0.258 |
| ATAATGGG | 0.0168 |
| CAAGATAA | 0.06 |
| CGGACGAC | -0.165 |
| ACTCCGTA | -0.113 |
